From PubChem BioAssay AID1508624 (National Center for Advancing Translational Sciences (NCATS), 2021)
In all, about 48,000 compounds went through this assay and about 120 (0.25%) were called active. Another 4% or so got no clear call; they are omitted. The call rests on the fitted dose curve; in most records, active means well fitted activation curve with a large enough effect; inconclusive means small, poorly fitted or top-dose-only effect, or another doubt; inactive means no such curve, though single readings can be large or run the other way. The list shows a part of the results.

test: Primary qHTS for Identification of Small Molecule Activators of Huntingtin-Antisense Promoter Activity; details: HEK293 HTT-AS promoter firefly luciferase reporter (activity 0% = vehicle and -100% = no light), 24 h; series mostly up to 57.5 µM; activity change, positive = activation: at the top concentration; further: nearly all actives have a fitted effect of over 55% in size
Method in brief: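 HEK293 Fluc reporter, 2,500 cells/well, 24 h pre-culture; cpds up to 57.5 uM final, 24 h 37 degrees C; Dual-Glo, 10 min RT; normalized vehicle = 0%, zero RLU = -100%.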

Activity change, positive = activation, inactive:
COC(=O)c1cccc(CN2C(=O)SC(Nc3ccc(C)cc3)C2=O)c1 (centres undefined) -9.43%, C=Cc1ccc(Cn2c(SCC(=O)N3CCN(c4ccc(F)cc4)CC3)nc3ccccc32)cc1 -14.3%, Cc1ccc(CNC(=O)CN2C(=O)CC(c3ccc(C)c(C)c3)=Nc3ccccc32)cc1 12.2%, COc1ccc(-c2nc(S(=O)(=O)c3ccc(C)cc3)c(N3CCCCC3)o2)cc1 -6.91%, CCCCOC(=O)c1ccc(Nc2ncnc3c2cnn3-c2cccc(C)c2)cc1 -7.74%, Cc1cccc(CN2CCC(CNc3ncnc4onc(-c5ccc(Cl)cc5)c34)CC2)c1 -21.7%, COc1ccc(NC(=O)C2CCCN(S(=O)(=O)c3cccc4nonc34)C2)cc1Cl (centres undefined) -11.1%, Cn1cnc([N+](=O)[O-])c1Sc1ncnc2nc[nH]c12, Clc1cccc(-n2cc(-c3ccccc3)c3c(NC4CCCC4)ncnc32)c1 -12.2%, COc1ccccc1NC(=O)CSc1nc2c(oc3ccccc32)c(=O)n1Cc1ccco1 -16.5%, Cc1ccc(-c2nnc3c4ccccc4c(C)nn23)cc1NC(=O)c1cccc(Br)c1 -0.688%, O=C(NCc1cccc(Cl)c1)NCc1noc2ccccc12 4.63%, CCCCN(CC)C(=O)CCCn1c(=O)c2cccn2c2ccccc21 -12.1%, COc1cccc(N2CCN(c3ncnc4c3c(-c3ccccc3)cn4-c3ccc(F)cc3)CC2)c1 -4.85%, CCOC(=O)c1cnc(N2CCN(c3ccc(OC)cc3)CC2)c2ccccc12 -11.3%, CCN1CCN(c2ncnc3c2cnn3-c2cc(Cl)ccc2C)CC1 -10.8%, CCOC(=O)c1c(S(=O)(=O)NCC(=O)N(C)Cc2ccccc2)c(C)n(C)c1C -16%, COc1ccccc1N1CCN(c2ncnc3c2c(-c2ccccc2)cn3-c2cccc(C)c2)CC1 -16.2%, CC1CCN(S(=O)(=O)c2csc(C(N)=O)c2)CC1 -18.7%, CCCOc1ccc(C2c3c(oc4ccc(F)cc4c3=O)C(=O)N2CCc2ccc(OC)cc2)cc1 (centres undefined) -5.89%, O=C(CSc1oc(-c2ccc(F)cc2)nc1S(=O)(=O)c1ccc(Br)cc1)NC1CCCCC1 -0.448%, CC(=O)Nc1nonc1-c1nnc(SCC(=O)Nc2ccc(C)c(Cl)c2)n1C -13.8%, COc1ccc(-c2cc(=O)c3c(O)cc(O[C@@H]4O[C@H](CO[C@@H]5O[C@@H](C)[C@H](O)[C@@H](O)[C@@H]5O)[C@@H](O)[C@H](O)[C@@H]4O)cc3o2)cc1O -50.9%, CCOc1ccc2c(c1)c(=O)c(S(=O)(=O)c1ccc(C)cc1)cn2Cc1ccccc1Cl -14.2%, O=C(Cn1nc(-c2ccc(Cl)cc2)ccc1=O)NCCc1ccccc1 -23.3%, CCOC(=O)CCc1c(C)nc2c(c(C)nn2-c2ccc(C)cc2)c1C -3.68%, O=C(C1CCC1)N1CCc2cc(S(=O)(=O)NCCc3ccccc3)ccc21 -28.1%, Cc1ccc(Cn2c(CCNC(=O)C(C)C)nc3ccccc32)cc1 -13.9%, COc1ccc(CNC(=O)CCNS(=O)(=O)c2ccc3c(c2)CCCC(=O)N3)cc1 -20%, Cc1ccc(Cl)cc1N(C)C(=O)C1CCCN(c2ncnc3onc(-c4ccc(F)cc4)c23)C1 (centres undefined) -34%, CCOc1ccccc1NC(=O)c1c(NC(=O)Cc2ccc(OC)cc2)sc2c1CCC2 12.9%, CCc1cccc(NC(=O)c2ccc3c(c2)c(C)c(C)n3Cc2ccc(F)cc2)c1 -25.7%, Cc1ccc(OCC(=O)Nc2cccc(C(=O)OCc3cc(=O)n4c(C)csc4n3)c2)cc1 -29.6%, Cc1ccccc1OCC(=O)OCc1cc(=O)n2nc(-c3cccs3)sc2n1 6.99%, Cn1c(C(=O)Nc2ccc(OC(F)(F)F)cc2)cc2c(=O)n3ccccc3nc21 -13.1%, COc1ccccc1CNC(=O)c1nnn(CC(=O)Nc2c(C)cccc2C)c1N -3.22%, CC(=O)c1ccc(N2CCN(c3ncnc4c3cnn4-c3cc(Cl)ccc3C)CC2)cc1 -43.8%, Cc1ccc(CNC(=O)CN2N=C(c3ccccc3)CCC2=O)cc1 -3.42%, Cc1cccc(CSc2nnc3[nH]c(=O)cc(-c4ccccc4)n23)c1 7.67%, COc1cc(-c2nc3ccc(Cl)cn3c2Nc2ccc3c(c2)OCCO3)ccc1O -9.32%, O=C(c1ccc2c(c1)N(Cc1ccc(Cl)cc1)C(=O)c1ccccc1S2(=O)=O)N1CCN(c2ccccn2)CC1 -36.7%, Cc1cc(NC(=O)C2CCCN(S(=O)(=O)c3cccc4nsnc34)C2)ccc1Br (centres undefined) 1.79%, O=C(Nc1cc(Cl)cc(Cl)c1)c1ccc(F)c(S(=O)(=O)N2CCN(c3ccccc3F)CC2)c1 -1.67%, CCOc1ccc(NC(=O)N2CCC(N3CCCCC3)CC2)cc1 4.57%, Cc1ccc(NC(=O)COc2ccc3oc4c(c3c2)CCCC4)cc1C -5.73%, CNC(=O)c1ccc2c(C(=Nc3cccc(CN(C)C)c3)c3ccccc3)c(O)[nH]c2c1 -66%, Cc1ccc(CN2COc3c(Cl)cc4c(-c5ccccc5)cc(=O)oc4c3C2)cc1 -10.8%, CCOc1ccccc1NC(=O)Cn1c(=O)n(C(C)C)c(=O)c2oc3ccccc3c21 -10.6%, COc1ccc(-n2c(=O)c3ccc(C(=O)NCc4ccc(C)cc4)cc3n(Cc3ccc(Cl)cc3)c2=O)cc1 -12.6%, COc1ccc(-n2nc3c(N4CCCC(C(=O)NCCc5ccccc5C)C4)nnc(C)c3c2C)cc1 (centres undefined) -22.3%, COCCn1c(C)cc(O)c(C(c2ccc(F)cc2)N2CCC(C)CC2)c1=O (centres undefined) 5.94%, Cc1ccc(N(CC(=O)Nc2ccc(C)c(Cl)c2)S(=O)(=O)c2cccs2)cc1 -9.95%, COc1cccc(NC(=O)Cn2c(=O)n(-c3ccccc3)c(=O)c3c2c2cc(OC)ccc2n3C)c1 -25.1%, O=S(=O)(c1ccc(-c2cnc(C3CC3)o2)cc1)N1CCN(c2ccccc2)CC1 18.2%, Cn1cc(S(=O)(=O)N2CCOCC2)cc1C(=O)Nc1cccc(C#N)c1 -10.2%, COc1ccc(C2c3c(n(C)c4ccccc34)C(=O)N2CC(=O)Nc2ccc(F)cc2)cc1 (centres undefined) -19.1%, CCC(=O)N1CCc2cc(OC)c(OC)cc2C1COc1ccc2c(C)cc(=O)oc2c1 (centres undefined) 8.31%, CCCCn1c(=N)n(CCOc2ccccc2OC)c2ccccc21 -34.6%, Cc1ccc(C(=O)c2oc3ccccc3c2NC(=O)Cc2ccccc2)cc1 -10%, Cc1ccc(CSc2nc(-c3ccccc3C)nc3c2Cc2c(CO)cnc(C)c2O3)cc1 -5.44%, COc1ccc(-c2ccc(=O)n(CC(=O)Nc3ccc(OC)c(OC)c3)n2)cc1 -14.9%, CCOc1ccc(-c2nc(SCC(=O)Nc3cc(F)ccc3F)n3[nH]c(=O)cc3n2)cc1 -3.46%, CCn1nnc2cc(C(=O)Nc3ccc(Br)cc3F)ccc21 36.4%, Cn1ncc2c(NCc3ccc(F)cc3)ncnc21 -1.04%, CCOC(=O)c1c(S(=O)(=O)N2CCC(C(=O)N3CCN(c4ccc(F)cc4)CC3)CC2)c(C)n(C)c1C -10.6%, O=c1[nH]c2ccccc2n1CCCN1CCN(C(c2ccccc2)c2ccccc2)CC1 -30.9%, Cc1ccc(NC(=O)C2CCCN2S(=O)(=O)c2ccc3c(c2)n(C)c(=O)c(=O)n3C)cc1C (centres undefined) -5.62%, O=C1N(Cc2ccccc2)c2ccccc2C1(O)c1c[nH]c2ccccc12 (centres undefined) -16%, Cn1c(=O)c2c(SCC(=O)N3CCc4ccccc43)nc(-c3ccc(Cl)cc3)nc2n(C)c1=O -3.96%, O=C(CN1C(=O)COc2ccc(S(=O)(=O)N3CCOCC3)cc21)N1CCN(c2ccccc2F)CC1 -20.4%, CCc1cccc(NC(=O)c2c(C)oc3nc(C)nc(N4CCCC4)c23)c1 -14.1%, Cc1ccc(NC(=O)C(=O)NCC2(c3ccccc3)CCCC2)cc1C 29.2%, Nc1nc2ncc(CNc3ccc(C(=O)N[C@@H](CCC(=O)O)C(=O)O)cc3)nc2c(=O)[nH]1 -2.96%, CCCOc1ccc(CNC(=O)CN2C(=O)c3cccnc3Oc3ccc(C)cc32)cc1 -12.7%, COC(=O)C1CCN(c2csc3ccc(Cl)cc3c2=O)CC1 16.7%, CCC[C@H](N[C@@H](C)C(=O)N1[C@@H]2CCCC[C@H]2C[C@H]1C(=O)O)C(=O)OCC -2.02%, O=C(NCCCO)c1nn(-c2ccc(Cl)cc2)nc1CO 0.786%, CCc1ccc(OCc2cc(=O)n3cc(C)sc3n2)cc1 -0.0969%, CCOc1ccc2oc(=O)cc(CN3CCN(c4ccccc4OC)CC3)c2c1 -20.3%, COc1cc(OC)c(OC)cc1CNCCCSc1nnnn1C 0.362%, COc1cccc(NC(=O)Cn2c(=O)n(CCc3ccc(OC)c(OC)c3)c(=O)c3ccccc32)c1 -12.2%, CCc1ccc(NCc2cc3ccc(OC)cc3n(CC(=O)Nc3ccc(C)c(Cl)c3)c2=O)cc1 -0.078%, COc1ccc(C(=O)N(Cc2cc(OC)c(OC)c(OC)c2)C2CCS(=O)(=O)C2)cc1Cl (centres undefined) 8.03%, COc1cc(OC)c(N(C)C(=O)c2sc3nc4n(c(=O)c3c2C)CCCCC4)cc1Cl 5.94%, Cc1cc(Nc2cc(F)ccc2C)nc(-n2nc(C)cc2C)n1 -33.3%, COc1cc(NC(=O)Cn2nc3c(cc2=O)CC(C)CC3)cc(OC)c1OC (centres undefined) -16.4%, CN(C)S(=O)(=O)N(CC(=O)NCCSc1ccccc1)c1ccccc1 -16.9%, CC(C)N(Cc1ccccc1)C(=O)CN1C(=O)CSc2ccc(S(=O)(=O)N3CCCC3)cc21 -37.6%, Cc1c(C(=O)N2CCC(C)CC2)c(S(=O)(=O)Nc2ccc(OC(F)(F)F)cc2)c(C)n1C -23.3%, CCn1cc(C(=O)N2CCN(c3ccc(OC)cc3)CC2)c(=O)c2cc(S(=O)(=O)N3CCOCC3)ccc21 -3%, COc1ccc2[nH]cc(CCN=C(NC(=O)c3ccccc3C)Nc3nc(C)cc(C)n3)c2c1 8.76%, O=C(Nc1ccc(C(F)(F)F)cc1)C(Cc1ccccc1)n1cccc1 (centres undefined) -31.7%, O=C(NCCCN1CCN(c2ccccc2F)CC1)c1ccc2nc(N3CCCCC3)sc2c1 -55.5%, CC(=O)Nc1cccc(C(=O)NCc2ccc3c(c2)CCN3C(=O)c2ccc(F)cc2)c1 4.75%
